Data taken from PMC4336329 (PLoS ONE, 2015).
Screen size: about 310,000 compounds; about 14,000 (4.5%) showed an effect of 50% or more. The effect is printed as a negative number. Some of the results follow.

target: human ether-à-go-go-related gene (hERG) potassium channel (human, UniProt Q12809); assay: primary screen, population patch clamp on CHO cells stably expressing hERG
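Further: peak tail current of the secondary pulse compared with the same well before compound.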

Sequence of human ether-à-go-go-related gene (hERG) potassium channel (Q12809 whole entry, looked up): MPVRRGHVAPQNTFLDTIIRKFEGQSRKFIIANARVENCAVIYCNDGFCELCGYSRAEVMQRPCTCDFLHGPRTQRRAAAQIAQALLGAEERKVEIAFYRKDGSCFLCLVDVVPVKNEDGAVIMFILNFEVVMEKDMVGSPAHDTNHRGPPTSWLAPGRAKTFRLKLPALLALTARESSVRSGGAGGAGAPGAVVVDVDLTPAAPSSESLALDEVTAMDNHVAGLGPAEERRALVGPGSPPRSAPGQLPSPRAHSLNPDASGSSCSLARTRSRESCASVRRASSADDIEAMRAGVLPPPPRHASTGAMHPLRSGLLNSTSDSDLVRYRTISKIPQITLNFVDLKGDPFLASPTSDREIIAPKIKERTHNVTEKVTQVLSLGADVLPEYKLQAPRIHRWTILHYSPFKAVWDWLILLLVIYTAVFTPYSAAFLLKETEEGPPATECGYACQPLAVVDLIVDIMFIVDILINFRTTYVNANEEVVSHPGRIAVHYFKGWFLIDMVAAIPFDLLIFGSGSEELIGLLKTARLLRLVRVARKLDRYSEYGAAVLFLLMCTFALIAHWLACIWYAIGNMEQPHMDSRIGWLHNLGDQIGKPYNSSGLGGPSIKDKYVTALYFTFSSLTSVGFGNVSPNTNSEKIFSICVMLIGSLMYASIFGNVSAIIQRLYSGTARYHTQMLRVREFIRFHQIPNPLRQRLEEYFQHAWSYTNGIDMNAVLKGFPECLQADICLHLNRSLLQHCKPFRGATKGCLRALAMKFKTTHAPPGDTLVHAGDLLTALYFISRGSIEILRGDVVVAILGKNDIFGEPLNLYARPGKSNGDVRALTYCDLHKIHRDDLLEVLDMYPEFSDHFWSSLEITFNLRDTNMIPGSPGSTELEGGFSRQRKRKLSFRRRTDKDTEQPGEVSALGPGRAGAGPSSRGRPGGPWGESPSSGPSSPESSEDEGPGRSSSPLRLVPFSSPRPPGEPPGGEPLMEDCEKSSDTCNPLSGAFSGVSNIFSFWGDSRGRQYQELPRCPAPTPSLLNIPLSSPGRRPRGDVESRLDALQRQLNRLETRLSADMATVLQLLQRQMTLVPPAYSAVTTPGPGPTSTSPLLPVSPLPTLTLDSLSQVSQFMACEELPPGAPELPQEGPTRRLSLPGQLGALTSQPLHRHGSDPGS

SMILES | hERG current change (%, negative = inhibition) at 10uM [%]
Fc1cccc2sc(Nc3nnc(-c4ccco4)o3)nc12 | 37.9
Cc1nonc1C1CCCN1C(=O)c1cc(COc2ccc(F)cc2F)on1 (stereo not shown) | 9.53
Cc1cc(C)n(-c2ccc(C(=O)OCC(=O)c3c(N)n(C)c(=O)n(C)c3=O)cc2)n1 | -8.33
COC(=O)[C@@H]1CCCN1C(=O)c1cc(COc2cccc3cccnc23)on1 | 10.6
O=C(O)c1nn(CCOc2ccc(Cl)cc2Cl)c(=O)c2ccccc12 | 23.7
Cc1cccc(C2c3[nH]c4ccccc4c3CCN2C(=O)Cc2n[nH]c(C)n2)n1 (stereo not shown) | 5.57
CC1(C)CC(C(CC(=O)O)c2ccccc2)CCO1 (stereo not shown) | 28.9
Cc1cc(C(=O)OCc2nc3ccccc3s2)c(C)o1 | 3.9
O=C(Cc1nn[nH]n1)NCCC1=CCCCC1 | 6.92
N/N=C(\c1ccccc1)C12CN3CN(CN(C3)C1)C2 | 7.98
CC1(C)C(=O)OC(c2cccn2-c2ccc([N+](=O)[O-])cc2)C2(CCCCC2)C1=O (stereo not shown) | 11.7
Cl.NS(=O)(=O)c1cccc(NC(=O)c2cc(-c3cccs3)nc3ccccc23)c1 | 8.4
NC(=O)N1CCC2(CC1)NC(=O)N(c1ccccc1)N2 | 11.9
CC1SCC(NC(=O)c2ccc(Cl)cc2)CS1 (stereo not shown) | -0.992
CCOc1ccc(CN2CCN(CC(O)Cn3c4ccccc4c4ccccc43)CC2)cc1 (stereo not shown) | -70.9
NS(=O)(=O)c1ccc(CNC(=O)/C=C/c2ccccc2)cc1 | 9.02
CCC(=O)Oc1ccc2ccccc2c1CNC(=O)c1ccccc1 | -16.7
CCOC(=O)c1[nH]c2ccccc2c1NC(=O)c1ccc(S(=O)(=O)N(C)C)cc1 | -0.44
COc1ccccc1-c1nc2n(n1)C(c1ccccc1Cl)C(C(N)=O)=C(C)N2 (stereo not shown) | -5.7
Cc1nnc(C)n1/N=C/c1cccc([N+](=O)[O-])c1 | 7.89
CC1=C(C(=O)Nc2cccc(C(=O)N3CCC(C(N)=O)CC3)c2)SCCO1 | 20.1
CCCCN(C(=O)c1c(C)noc1C)c1c(N)n(CCCC)c(=O)[nH]c1=O | 8.77
CC(=O)NCc1ccc(-c2nc3ccccc3s2)cc1 | -9.06
CN1C(=O)[C@H]2[C@@H](/C=C/c3ccccc3)N3C(=O)CN(CCO)C(=O)[C@@]3(Cc3ccccc3)[C@H]2C1=O | 0.734
O=C(NC1CCCCC1)C(c1ccc2ncccc2c1)N(Cc1ccccc1)C(=O)c1ccc2c(c1)OCCO2 (stereo not shown) | -29.4
COC(=O)c1ccc(-n2nnnc2SCC(=O)Nc2ccccc2F)cc1 | 16.2
COc1ccc(NC(=O)CSc2nc(C)cc(C)n2)cc1 | 5.07
CC(C)c1onc(C(=O)N2CCCCC2)c1[N+](=O)[O-] | 0.205

SMILES | hERG current change (%, negative = inhibition) at 10uM [%]
COc1ccc(NS(=O)(=O)c2ccc(O)c(C(=O)OCC(=O)Nc3ccc4c(c3)OCCO4)c2)cc1 | 21.3
CC(=O)c1ccc(C(=O)Nc2ccc3c(c2)C(=O)NC3=O)cc1 | 18
O=C(NC1CCCCC1)N(Cc1cc2cc3c(cc2[nH]c1=O)OCCO3)C1CCCCC1 | -10.7
CCCNC(=O)COC(=O)/C(C#N)=C/c1cc(C)n(CCC)c1C | 5.72
CNC(=O)c1sccc1Oc1ccc(F)cc1[N+](=O)[O-] | 20.5
COc1ccc(-c2ccoc2)cc1[C@H]1[C@H]2C=CC[C@@H](C)[C@@H]2C(=O)N1Cc1ccccc1 | 1.85
CCCCSc1nc(C)nc2c1c(=O)n(C)c(=O)n2C | 3.49
CN(c1ccccc1)S(=O)(=O)c1ccc(Cl)c(C(=O)Nc2ccc(N3CCOCC3)cc2)c1 | -18.3
C/C=C1/CN2C3CC1C(CO)(C(=O)OC)C2Cc1c3n(C)c2ccccc12 (stereo not shown) | -10.6
COc1cc(OC)c(C(=O)N(CCc2ccccc2)Cc2ccccc2)cc1OC | -12.6
COc1ccc(OC)c(S(=O)(=O)N/N=C(/C)c2ccc3c(c2)OCO3)c1 | -4.29
CN(C)S(=O)(=O)c1cccc(NC(=O)COC(=O)c2cc(=O)[nH]c(=O)[nH]2)c1 | 12.3
CCCCCn1nc(C(=O)OCC(=O)c2c(N)n(C)c(=O)n(C)c2=O)c2ccccc2c1=O | -11.5
O=C(CSc1nnc(-c2ccccc2)n1-c1ccccc1)c1cccs1 | -12.6
O=C(/C=C/c1ccc2c(c1)OCO2)c1ccc(F)cc1 | 5.42
COc1ccc(-n2nc(C(=O)NCC(=O)NCCN(C)C)c3ccccc3c2=O)cc1 | 10.7
COc1cc(C)nc(N2CCC(C(=O)NCC3CCCO3)CC2)n1 (stereo not shown) | 4.78
c1ccc2nc3c(cc2c1)CCCCC3 | -18.5
Cc1ccc(CCC(=O)Nc2ccc(C)c(C)c2)o1 | -24.7
COC(=O)CSC1=C(C#N)C(c2ccc(F)cc2)CC(=O)N1 (stereo not shown) | 4.55
CCCCN1C(=O)NC(NC(C)=O)(C(F)(F)F)C1=O (stereo not shown) | 5.89
CC1(C)Cc2c(cnn2-c2ccc(F)cc2)C(NC(=O)CCC(F)(F)F)C1 (stereo not shown) | -42.8
O=C(NC1CC1)c1cccc(Oc2ccccc2)c1 | 1.52
O=C(CSc1nc(-c2ccco2)cc(C(F)(F)F)n1)Nc1ccc2c(c1)CCC2 | -2.88
CN1CCN(CCN2CCn3c2nc2ccccc23)CC1.Cl | -7.38
CCCCCn1cnnc1SCC(=O)c1ccc2c(c1)OCO2 | -27.9
COc1cc2c(cc1NC(=O)COC(=O)[C@@H](NS(=O)(=O)c1ccccc1)C(C)C)oc1ccccc12 | 7.66
